{"source": "PubChem BioAssay AID1918932", "about": "(Molecular Pharmacology Branch, DTP, NCI, 2023)", "tested_on": "171881-019-R-J1-PDC complex spheroid viability", "experiment": "Anticancer human tumor 171881-019-R-J1-PDC patient-derived invasive breast carcinoma cell line growth inhibition", "details": "for viability, T/C: stronger effect = lower value", "text": "Multicellular complex tumor spheroid response to LSD1 Inhibitor Iadademstat in combination with a variety of drugs and investigational agents in selected tumor cell lines\nThe current study was undertaken to assess response to LSD1 inhibitors in combination with standard-of-care drugs and investigational agents in solid tumor complex spheroid models as well as in the K-562 leukemia. Complex spheroids include a stromal component modeled by human endothelial cells (HUVEC) and fibroblasts modeled by human mesenchymal stem cells (MSCs). The concentration ranges selected for each drug and investigational agent were based upon clinically achievable concentrations if the clinical Cmax of the agent was known.\nCompounds. The drugs and investigational agents used in this study are listed on Table 1. All of the agents used, including staurosporine (NSC755774) and gemcitabine (NSC613327), were obtained from the Developmental Therapeutics Program, NCI. FDA-approved anticancer drugs are available from the NCI at http://dtp.nci.nih.gov/branches/dscb/oncology_drugset_explanation.html. Drugs and investigational agents were >95% pure by proton nuclear magnetic resonance (NMR) and liquid chromatography/mass spectrometry (LC/MS). Stock solutions were prepared at 400x in DMSO, stored at -70 degrees C, and diluted in fresh medium prior to their use. The final concentration of DMSO in cell culture wells never exceeded 0.25% (v/v). The FDA-approved anticancer drug set is available from the Developmental Therapeutics Program at https://dtp.cancer.gov/organization/dscb/obtaining/available_plates.htm. All drugs and investigational agents were tested over a range starting from a high concentration at or near the clinical Cmax and decreasing in half-log increments. If the clinical Cmax for an agent had not been determined, the highest concentration tested was 10 microM.\nCell Lines. The patient-derived cancer cell (PDC) lines: 292921-168-R-J2-PDC, K24384-001-R-PDC, and 521955-158-R2-J5-PDC pancreatic carcinomas, 556581-035-R-J1 ovarian carcinoma, 324938-238-R-J1-PDC, 855422-203-R-J1-PDC and 883617-216-R-J1-PDC urothelial bladder carcinomas, 743489-274-T-PDC renal cell carcinoma, 138582-R-J1 Merkel cell tumor, K60290-347-R-J1 and K57222-313-R-J1-PDC glioblastomas, 653999-131-R-J2-PDC, LG0703-F948-PDC, and 349418-098-R-PDC non-small cell lung carcinomas, 885512-296-R-J2-PDC, 171881-019-R-J1-PDC breast carcinomas and 186277-243-T-J2-PDC and 233499-124-R-J2-PDC colon carcinomas were obtained from the NCI Patient-Derived Models Repository (PDMR, https://pdmr.cancer.gov). The established cell lines NCI/ADR-RES (RRID:CVCL_14520 and OVCAR-5 (RRID:CVCL_1628) ovarian carcinomas, 786-O (RRID:CVCL_1051) and A498 (RRID:CVCL_A498) renal cell carcinoma, NCI-H211 (ATCC, cat. CRL-5824; RRID:CVCL_1529), NCI-H196 (ATCC, cat. CRL-5823, RRID:CVCL_1509), SW 1271 (ATCC, cat. CRL-2177, RRID:CVCL_1716) and NCI-H1876 (ATCC, cat. CRL-5902, RRID:CVCL_1503) small cell lung carcinomas, MDA-MB-231 (RRID:CVCL_0062) and MDA-MB-468 (RRID:CVCL_0419)breast carcinomas (10-12). Pooled donor human umbilical vein endothelial cells (HUVEC, Lonza, cat. CC-2519) and human mesenchymal stem cells (hMSC, Lonza, cat. PT-2501) were purchased from Lonza (Walkersville, MD).\nCell Culture. All cells were maintained in an incubator at 37 degrees C and 5% CO2 with 95% humidity. The PDC lines were cultured according to standard operating procedures established by the NCI PDMR (https://pdmr.cancer.gov). Briefly all PDCs were thawed and cultured in Matrigel-coated flasks prepared with a working solution of 1X Ham's F-12 nutrient mix, without supplementation (Invitrogen, Waltham, MA, cat. 11765054), 100 U/mL penicillin-streptomycin (Invitrogen, cat. 15140122), and 2.5% Matrigel (Corning Inc., Corning, NY, cat. 354248) for the first three passages. […]", "note": "Some entries of the source have several records that differ or are many. The other results are left out here. An entry can have further records. Results that share an entry are repeats (runs, samples, wells, individuals or studies). Counts like (3×) say how often a value occurs here.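 Also: spheroids exposed to agents for 7 days after 3 days growth.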", "data": [{"smiles": "NC1CCC(NC2CC2c2ccccc2)CC1", "note": "(centres undefined)", "values": [{"measurement": "viability, T/C", "setting": "compound alone 0.1 µM", "result": "81.3, 89.9 (2×), 82.3, 78.4, 82.6, 96.1, 84.8, 90, 96.6, 86.8 (2×), 82.2, 83.4, 88.8, 89.6, 89.1, 82.1, 95.9, 74.3, 97, 72.9, 85.8, 99.4, 80.7%"}, {"measurement": "viability, T/C", "setting": "compound alone 1 µM", "result": "74.2, 80.8, 88.6, 80, 91.3 (2×), 106, 91.6, 85.4, 81.1, 85.8, 87.2, 95.7, 74.9, 97.9, 84.2, 88.1, 93.6, 83.3, 79, 87.6, 81.8, 87.7, 78.2, 82%"}, {"measurement": "viability, T/C", "setting": "compound alone 3.16 µM", "result": "76, 89.3, 74.2, 78.7, 93.6, 82.9, 92.2, 90.1, 92.4, 80.3, 85.8, 89.6, 90.8, 82.3, 79.8, 87.2 (2×), 91, 78, 85.2, 99.9, 81.5, 96.2, 89.2%"}, {"measurement": "viability, T/C", "setting": "compound alone 10 µM", "result": "75.7, 80.2, 72.8, 71.6, 92.8, 86.5, 97.2, 84.2, 88.3, 95.9, 89.2, 84.3, 107, 85.3, 102, 79.8, 83.5, 84.6, 85.6, 75.9, 94.2, 84.8, 81.6%"}]}, {"smiles": "NC1CC1c1ccc(-c2cccc(O)c2)cc1", "note": "(centres undefined)", "values": [{"measurement": "IC50", "setting": "combination with iadademstat, compound alone, run of 02/21/2022", "result": "> 10 µM, 5.43 µM, < 100 nM, 813 nM"}, {"measurement": "viability, T/C", "setting": "compound alone 0.316 µM", "result": "108 (4×), 109, 105, 101 (3×), 103 (2×), 107 (3×), 106 (3×), 110 (3×), 68.2, 102, 104 (2×), 112%"}, {"measurement": "viability, T/C", "setting": "compound alone 1 µM", "result": "104 (2×), 105 (4×), 110, 107 (3×), 100, 103 (4×), 77.8, 108 (4×), 106, 49.7, 37.9, 102, 109%"}, {"measurement": "viability, T/C", "setting": "compound alone 3.16 µM", "result": "103 (2×), 101 (2×), 107, 109, 102, 95.2, 61.3, 104, 106 (2×), 44, 48.2, 105 (2×), 108, 99.7, 100 (2×), 96.6, 93.5, 94.4, 113, 99.9%"}, {"measurement": "viability, T/C", "setting": "compound alone 10 µM", "result": "86.2, 80.4, 87.2 (2×), 92.2, 85.7, 85.2, 39.1, 94.8, 92.4, 89.6, 35.5, 30.5, 83.5, 86.3, 87.3, 88.5 (2×), 88.7, 84.9, 85.4, 91.8, 83.3, 95.2, 86.6%"}]}]}
